The values below come from PubChem BioAssay AID1159614 (National Center for Advancing Translational Sciences (NCATS), 2016).

In all, about 45,000 compounds went through this assay and about 65 (0.1%) were called active. Calls follow the shape of the dose curve; as a rule, active = well fitted activation curve with a large enough effect; inconclusive = small, poorly fitted or top-dose-only effect; inactive = no such curve, though single readings can be large or run the other way. The list shows a part of the results.

UniProt P54803, sequence (P54803 whole entry, looked up): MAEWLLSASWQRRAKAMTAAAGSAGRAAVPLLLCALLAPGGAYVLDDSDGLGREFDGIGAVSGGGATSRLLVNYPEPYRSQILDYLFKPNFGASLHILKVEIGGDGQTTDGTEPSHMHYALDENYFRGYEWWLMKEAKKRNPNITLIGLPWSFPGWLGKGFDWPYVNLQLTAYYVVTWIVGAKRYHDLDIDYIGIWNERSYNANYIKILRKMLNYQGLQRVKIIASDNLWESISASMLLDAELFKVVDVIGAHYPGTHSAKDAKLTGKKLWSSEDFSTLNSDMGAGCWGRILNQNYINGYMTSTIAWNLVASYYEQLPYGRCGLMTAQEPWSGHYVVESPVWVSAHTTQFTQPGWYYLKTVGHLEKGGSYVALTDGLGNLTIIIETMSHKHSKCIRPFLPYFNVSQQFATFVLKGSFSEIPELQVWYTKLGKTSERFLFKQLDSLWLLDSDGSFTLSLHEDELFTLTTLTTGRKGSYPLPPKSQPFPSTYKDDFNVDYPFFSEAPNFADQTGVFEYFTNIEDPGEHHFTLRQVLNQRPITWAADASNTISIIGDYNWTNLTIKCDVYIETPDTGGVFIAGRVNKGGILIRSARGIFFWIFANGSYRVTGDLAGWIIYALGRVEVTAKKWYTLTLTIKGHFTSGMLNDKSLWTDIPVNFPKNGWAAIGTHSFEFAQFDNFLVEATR

This assay concerns the target Galactocerebrosidase (Homo sapiens) (UniProt P54803). As to the kind of experiment: A Novel Cell-Based Assay to Identify Small Molecules for B -Galactocerebrosidase. Also: 0% is about no effect; nearly all actives have a fitted effect of over 65% in size. The note with it: 145M-Twi-hGALC-G270D cells (Twitcher mouse brain line with human GALC G270D), HMU-beta-Gal fluorescence, 48 h; series mostly up to 57.5 µM; activation: at the top concentration. In a few lines:
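Live 145M-Twi cells (Twitcher mouse brain-derived, GALC-null) stably expressing human GALC-G270D, with a wild-type GALC line, were compound-treated. Residual GALC activity was then read as fluorescence from 0.1 mM final HMU-β-gal at pH 5.2; higher signal means activation.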
Turning to `CSc1cccc(NC(=O)Cn2c3ncccc3c(=O)n2-c2ccc(C)cc2)c1`, the “activation” value was inactive: -8.37%. To `Cc1csc2nc(COc3ccccc3NC(=O)c3ccco3)cc(=O)n12` belongs inactive: -6.5%. For `Cc1ccccc1OCC(=O)OCc1cc(=O)n2nc(C3CCCCC3)sc2n1` the value was inactive: -14.6%. For `CC(=O)c1ccc(N2CCN(S(=O)(=O)c3ccc(-c4cc(C(F)(F)F)on4)s3)CC2)cc1`, the “activation” value is inactive: -15.4%.

For the molecule `Cc1ccc2c(=O)cc(C(=O)Nc3cccc(Cl)c3C)oc2c1C`, the “activation” value is inactive: -20.8%.

For the molecule `COc1cc(NC(=O)CCc2nc(-c3cccs3)no2)cc(OC)c1OC`, the “activation” value is inactive: -15.7%. Take `Cc1ccc(C(=O)CC2(O)C(=O)N(CCc3ccccc3)c3ccc(Cl)cc32)cc1` (stereo not drawn): the “activation” value was inactive: 6.16%. To `Cc1cc(Nc2cccc(C)c2C)n2cnnc2n1` belongs inactive: -7.91%.

Turning to `Cn1c(=O)c2c(-c3ccccc3Cl)n(-c3cc(Cl)ccc3O)cc2n(C)c1=O`, the “activation” value is inactive: -19.1%. For `COc1ccc(OCCCCn2c(-c3ccc(Cl)cc3)nc3ccccc3c2=O)cc1` the value was inactive: -8.88%; for `CCCCCOC(=O)CSc1ncnc2c1sc1nc(N3CCOCC3)c3c(c12)CCCC3`, inactive: -20.8%. To `CCc1ccc2ncc3c(-c4ccc(F)cc4)nn(CC(=O)NCc4ccccc4)c3c2c1` belongs inactive: -15.6%; to `COc1ccc(CNC(=O)c2c(O)nc3cc(C)ccn3c2=O)cc1`, inactive: -2.27%; to `Cc1nc(C)c(-c2ccc(SCC(=O)Nc3ccc(C)c(F)c3)nn2)s1`, inactive: -14.6%. To `CCOc1ccc(-c2nc(SCC(=O)Nc3ccc(C)c(C)c3)n3[nH]c(=O)cc3n2)cc1` belongs inactive: -23.6%; to `Cc1ccc(C(C)C)c(OCC(=O)Nc2ccc(C(=O)OC3CCCCC3)cc2)c1`, inactive: -8.76%; to `CC(C)CC(C(=O)NCc1ccc(F)cc1)N1Cc2ccccc2C1=O` (stereo not drawn), inactive: -17.1%.

For `COc1ccc(Nc2ncc(C(=O)N3CCN(c4cccc(Cl)c4)CC3)c3ccccc23)cc1`, the “activation” value is inactive: -30.6%. Consider `Cc1ccc(C)c(-n2c(CCC(=O)O)ccc2-c2ccc(Cl)cc2)c1`, for which the “activation” value was inactive: -4.76%. As for `Cc1cccc(NC(=O)CSc2nc(-c3ccccc3)cn2-c2ccccc2)c1C`, the “activation” value is inactive: -8.84%. To `COCCn1ccc2c(OCC(=O)Nc3cccc(OC)c3)cccc2c1=O` belongs inactive: -4.83%; to `COc1cccc(CNC(=O)Cc2ccc(NC(=O)N3CCCCc4ccccc43)cc2)c1OC`, inactive: 3.46%. To `CCc1nnc(SCc2nc(-c3ccc(OC)c(OC)c3)oc2C)c2cc3sc(C)cc3n12` belongs inactive: 0.644%; to `Cc1ccc(/C=C/c2onc(C)c2S(=O)(=O)N2CCC(C(=O)NCc3ccc(C)o3)CC2)cc1`, inactive: 1.18%. For `Cc1ccc2oc(-c3ccc(C)c(NC(=O)c4ccc(C(C)(C)C)cc4)c3)nc2c1` the value was inactive: 10%. Turning to `CC(C(=O)Nc1cc(C(F)(F)F)ccc1Cl)n1nnc2sc3c(c2c1=O)CCCC3` (stereo not drawn), the “activation” value was inactive: -1.15%. Take `Cc1ccccc1C(=O)NCc1nc2cccnc2n1Cc1ccccc1`: the “activation” value is inactive: -4.91%. On to `COc1cccc(CNC(=O)c2nn(-c3ccccc3Cl)nc2CO)c1`, for which the “activation” value is inactive: -12.5%. With `COc1ccc(N2CCN(C(=O)c3ccc4c(c3)N(Cc3ccc(F)cc3)C(=O)c3ccccc3S4=O)CC2)cc1` (stereo not drawn), the “activation” value is inactive: -1.64%.

For the molecule `COc1ccccc1C(=O)n1nc(-c2ccco2)nc1NCc1ccc(Cl)cc1`, the “activation” value is inactive: -15.2%.

As for `CCN1CCN(C(c2ccccc2)c2sc3nc(-c4ccco4)nn3c2O)CC1` (stereo not drawn), the “activation” value was inactive: 2.26%. To `Cc1ccc(-c2csc(=Nc3ccccc3)n2Cc2ccc3c(c2)OCO3)cc1C` belongs inactive: -24.1%; to `COc1ccc(S(=O)(=O)c2c(Nc3ccc(F)cc3)sc(C(=O)c3ccc4c(c3)OCO4)c2N)cc1`, inactive: -15.1%; to `CCOc1ccccc1C(=O)Oc1c(Sc2ccccc2)c(C)nn1C(C)(C)C`, inactive: -20%.

Regarding `COCCc1nn2c(=O)cc(COC(=O)COc3ccc(F)cc3)nc2s1`, the “activation” value is inactive: -12%. To `COc1ccccc1NC(=O)c1c(NCc2ccc(C)o2)sc2c1CCC(C)C2` (stereo not drawn) belongs inactive: -11.7%; to `CCCOC(=O)c1c(NC(=O)C2c3ccccc3Oc3ccccc32)sc2c1CCC(C)C2` (stereo not drawn), inactive: -5%; to `COc1ccc(-c2cn3c(n2)sc2cc(C(=O)NCCCN4CCCCCC4)ccc23)cc1`, inactive: -14.7%.

For `CCC(O)c1cc2c(cc1NC(=O)c1cccc(Br)c1)OCCO2` (stereo not drawn), the “activation” value was inactive: -3.35%. To `CCCSc1ncc(Cl)c(C(=O)N(Cc2ccc(N(C)C)cc2)C2CCS(=O)(=O)C2)n1` (stereo not drawn) belongs inactive: 3.14%. To `COc1ccc(NC(=O)Cn2cnc3sc(C)c(S(=O)(=O)N4CCN(C)CC4)c3c2=O)cc1Cl` belongs inactive: -6.68%; to `CN1CCN(c2oc(-c3ccc(COc4ccc(Cl)cc4)o3)nc2C#N)CC1`, inactive: -8.16%; to `CC(C)C12CN3CC(C(C)C)(CN(C1)C3c1ccc(Cl)cc1)C2=O` (stereo not drawn), inactive: -0.953%. To `COc1ccc(-c2nc3ccccc3o2)cc1NC(=O)C(C)Oc1ccc(Cl)cc1Cl` (stereo not drawn) belongs inactive: -1.09%.

`Cc1nc2ccccc2n1CCc1nc2c3ccccc3nc(SCC(=O)Nc3ccc(Br)cc3F)n2n1`: the “activation” value is inactive: 2.2%. `O=C(CN1C(=O)CCc2cc(S(=O)(=O)N3CCOCC3)ccc21)Nc1cccc(Cl)c1`: the “activation” value is inactive: 1.88%. For `Cc1ccc(CNC(=O)CSc2nc(=O)[nH]c3c2CCCC3)cc1` the value was inactive: -14.9%. As to `CN(C)CCCN(C(=O)c1cccs1)c1nc2ccc(F)cc2s1`, the “activation” value was inactive: -11.8%. To `N#Cc1nc(-c2ccc(COc3ccccc3)o2)oc1NCc1ccccc1` belongs inactive: -5.73%; to `Cc1cccc(OC(=O)c2cc(-c3ccc4c(c3)OCCO4)on2)c1`, inactive: -9%. To `Cc1ccc(NS(=O)(=O)c2ccc3c(c2)NC(=O)CCS3)cc1C` belongs inactive: -5.34%.

Consider `CC(C)(C)OC(=O)N1CCC(c2c(C(=O)N3CCN(c4ncccn4)CC3)cnn2-c2ccccc2)CC1`, for which the “activation” value is inactive: -1.12%. To `Cc1ccccc1-n1c(/C=C/c2c(C)n(C)c3ccccc23)nc2ccccc2c1=O` belongs inactive: 15.6%; to `CNC(=O)C1CCC(Cn2c(=O)[nH]c3ccsc3c2=O)CC1` (stereo not drawn), inactive: -18.6%; to `CCOC(=O)c1ccc(N2C(=O)c3n[nH]c(C)c3C2c2ccc(C(C)(C)C)cc2)cc1` (stereo not drawn), inactive: -12.9%.

As for `CCOC(=O)CNC(=O)N1CCc2cc(S(=O)(=O)N3CCC(C)CC3)ccc21`, the “activation” value is inactive: -2.18%. To `CCN(CC)S(=O)(=O)c1ccc(C(=O)Nc2nc3c(Cl)cc(Cl)cc3s2)cc1` belongs inactive: -17.6%. To `CCOC(=O)c1ccc(NC(=O)COCc2cc(-c3ccc4c(c3)OCO4)on2)cc1` belongs inactive: -15.3%; to `CSc1ccc(CNc2ncc(-c3ccccc3)n2C)cc1`, inactive: -7.45%; to `CCOC(=O)c1cccc(NC(=O)c2cc(CN3CCOCC3)on2)c1`, inactive: -15.5%. For `CC(=O)N1CCCc2cc(S(=O)(=O)N(C)CC(=O)Nc3ccc(C)cc3C)ccc21`, the “activation” value is inactive: -12.4%.

For the molecule `COc1ccc(CCN(C)CCCC(C#N)(c2ccc(OC)c(OC)c2)C(C)C)cc1OC` (stereo not drawn), the “activation” value was inactive: -20.6%. In the case of `Cc1noc(Cn2c(=O)c3ccccc3n(CC(=O)Nc3cccc(Cl)c3C)c2=O)n1`, the “activation” value was inactive: -5.8%. For `CC(C)c1ccc(OCC(=O)Nc2c(Cl)ccc3nsnc23)cc1` the value was inactive: -9.29%. `N#Cc1nc(/C=C/c2ccc(F)cc2)oc1N1CCN(c2ccccc2)CC1`: the “activation” value is inactive: -13%. To `CCCn1c2ccccc2c2cnn(CC(=O)N3CCC(C(=O)OCC)CC3)c(=O)c21` belongs inactive: -15.6%.

For `Cc1ccc(CNc2nc3ccccc3n3c(C)nnc23)cc1`, the “activation” value was inactive: -19.2%. With `Cc1cccc(-c2noc(-c3cccnc3NCc3ccco3)n2)c1`, the “activation” value is inactive: 0.546%. To `COc1cccc(C2c3c(oc4ccc(C)cc4c3=O)C(=O)N2CCCN2CCOCC2)c1OC` (stereo not drawn) belongs inactive: -41.4%; to `O=C(Nc1cccc(NC(=O)c2ccc(Br)o2)c1)c1ccccc1`, inactive: -6.77%. For `COc1ccc(-n2c(=O)c3c4c(sc3n(Cc3cc(C)ccc3C)c2=O)CN(C(C)=O)CC4)c(OC)c1` the value was inactive: -33.9%; for `Cc1ccccc1-n1cc(-c2ccccc2)nc1SCC(=O)Nc1ccc(F)cc1`, inactive: -1.95%; for `Cc1onc(-c2ccccc2)c1-c1ccc(S(N)(=O)=O)cc1`, inactive: -5.7%. To `Cc1ccc(Sc2c(C)nn(C(=O)COc3ccc(F)cc3)c2C)cc1` belongs inactive: -15.2%; to `O=C(NCCN1CCN(c2ccccc2)CC1)Nc1ccccc1Br`, inactive: -18.6%.

Regarding `Cc1cc2oc(=O)c(CC(=O)O)c(C)c2c2occ(-c3ccc(F)cc3)c12`, the “activation” value was inactive: -19.6%. For `Cc1ccc(N2CC(NC(=O)c3ccc(S(=O)(=O)N4CCOCC4)cc3)CC2=O)cc1C` (stereo not drawn), the “activation” value is inactive: -18.4%. On to `Cc1cccc(CNC(=O)C2CCN(c3nnc(-n4c(C)ccc4C)s3)CC2)c1`, for which the “activation” value is inactive: -9.54%. In the case of `Cn1c(C(=O)NCCc2ccccc2)cc2c(=O)n3ccccc3nc21`, the “activation” value was inactive: 3.86%. To `COc1ccc(CCNC(=O)CCCn2c(=O)c3ccccc3n(Cc3ccc(F)cc3Cl)c2=O)cc1OC` belongs inactive: -7.94%; to `O=C(c1ccc2c(c1)OCCO2)N(Cc1cccnc1)c1nc2c(F)cccc2s1`, inactive: -15.6%. As to `Cc1cccc(-c2noc(CN(C(=O)c3ccccc3Cl)C(C)C)n2)c1`, the “activation” value was inactive: -12.3%. For the molecule `CCCSc1oc(-c2cccs2)nc1S(=O)(=O)c1ccc(Cl)cc1`, the “activation” value was inactive: -33.3%. With `O=C(c1cnc(N2CCCCC2)c2ccccc12)N1CCN(c2ccccc2F)CC1`, the “activation” value is inactive: -8.67%.

Consider `Cc1ccc2c(c1)c1c(c(=O)n(Cc3ccccc3)c(=O)n1Cc1cccc(C(F)(F)F)c1)n2C`, for which the “activation” value was inactive: -1.41%. For `COc1ccc(Cn2c(CNS(=O)(=O)c3ccc4c(c3)CCCC4)nc3cccnc32)cc1` the value was inactive: -33.5%; for `Cc1ccc(CNc2nc3ccccc3c3nc(-c4cccc(C)c4)nn23)cc1`, inactive: -10.6%.

With `CCOc1ccc(C(=O)NCCc2sc3nc(-c4ccc(Cl)cc4)nn3c2C)cc1OCC`, the “activation” value is inactive: -18.1%. As for `CCCc1cc(=O)[nH]c(=S)[nH]1`, the “activation” value was inactive: -8.03%. To `CC1CCCN(Cc2cn3c(-c4cccc(Br)c4)nnc3s2)C1` (stereo not drawn) belongs inactive: 5.73%. To `O=C(NCCc1ccc(Cl)cc1)c1ccc(Cn2c(=O)c3cccn3c3cccnc32)cc1` belongs inactive: -6.82%. For `c1csc(C2=NC(c3ccncc3)=Nc3ccccc3N2)c1` the value was inactive: -13.8%. For the molecule `CC(=O)N1CCc2cc(CNS(=O)(=O)c3ccc(Br)s3)ccc21`, the “activation” value is inactive: -7.3%. Consider `O=C(CSC1=Nc2ccccc2N=C(c2ccc(F)cc2)C1)NCc1ccccc1`, for which the “activation” value is inactive: -15.7%. To `Cc1ccc(C)c(N2CCN(C(=O)CCCCCn3c(=O)[nH]c4ccccc4c3=O)CC2)c1` belongs inactive: -22.2%. To `Cc1ccc(C)c(Cn2c(SCC(=O)N(C)Cc3ccccc3)nc3ccccc32)c1` belongs inactive: -12.5%. For `CCc1ccccc1NC(=O)C(=O)NCC(c1cccnc1)N1CCc2ccccc21` (stereo not drawn) the value was inactive: -14%; for `Cc1ccc(-c2nnc(Nc3ccc(S(N)(=O)=O)cc3)c3ccccc23)cc1S(=O)(=O)N1CCOCC1`, inactive: -19.8%.
